Data as given in publication PMC11995724, “Antibiotic target discovery by integrated phenotypic and activity-based profiling of electrophilic fragments” (Cell chemical biology, 2025).
Screen size: about 3,200 compounds; about 75 (2%) showed an effect of 50% or more. The list shows a part of the results.

These compounds were tested on T1, S. aureus MSSA476. Settings: relative growth, OD600, TSB; 25 µM; inhibitor.
T1 construct: MSSA476
Parameters: species or system S. aureus MSSA476 (TSB) or V. cholerae SAD30 (LB); 384-well bacterial growth screen at 25 uM, OD600 relative to DMSO control
CCCCNC(=O)C(C#N)=Cc1cccs1 [9-E17, N-butyl-2-cyano-3-(thiophen-2-yl)prop-2-enamide] was tested, and the “% of control remaining” value was 100.075%.
For CC(Cl)C(=O)N[C@H]1CCC(=O)N[C@@H]1c1ccnn1C (mixture of isomers) [6-B14, rac-2-chloro-N-[(2R,3R)-2-(1-methyl-1H-pyrazol-5-yl)-6-oxopiperidin-3-yl]propanamide], the “% of control remaining” value was 102.78%.
In the case of C=CC(=O)N1CCC(C(=O)N2CCC(NC(=O)NC)CC2)CC1 [2-H18, 3-methyl-1-{1-[1-(prop-2-enoyl)piperidine-4-carbonyl]piperidin-4-yl}urea], the “% of control remaining” value is reported as 121.149%.
With C=CC(=O)N(CC1CCOCC1)C1CC1 [2-I08, N-cyclopropyl-N-[(oxan-4-yl)methyl]prop-2-enamide] the “% of control remaining” value was 111.401%.
With C=CC(=O)NCC1CCN(C)C1=O (stereo not drawn) [2-B05, N-[(1-methyl-2-oxopyrrolidin-3-yl)methyl]prop-2-enamide] the “% of control remaining” value was 107.92%.
O=C(CCl)Nc1c(Cl)cccc1C(F)(F)F [5-B04, 2-chloro-N-[2-chloro-6-(trifluoromethyl)phenyl]acetamide] was tested, and the “% of control remaining” value was 82.3315%.
For CC(Cl)C(=O)NC1CCN(c2nnnn2C)CC1 (stereo not drawn) [7-K08, 2-chloro-N-[1-(1-methyl-1H-1,2,3,4-tetrazol-5-yl)piperidin-4-yl]propanamide], the “% of control remaining” value was 93.5636%.
For CCCn1c(N)c(C(=O)CCl)c(=O)n(C)c1=O [10-H12, 6-amino-5-(2-chloroacetyl)-3-methyl-1-propyl-1,2,3,4-tetrahydropyrimidine-2,4-dione], the “% of control remaining” value was 92.8125%.
With Cc1ccc(C)c(NC(=O)C(C#N)=Cc2ccc(N3CCCCC3)o2)c1 [9-D12, 2-cyano-N-(2,5-dimethylphenyl)-3-[5-(piperidin-1-yl)furan-2-yl]prop-2-enamide] the “% of control remaining” value was 93.1835%.
With CC(C)Oc1ccc2[nH]cc(C(=O)CCl)c2c1 [10-E03, 2-chloro-1-[5-(propan-2-yloxy)-1H-indol-3-yl]ethan-1-one] the “% of control remaining” value was 110.313%.
For C=CC(=O)N1CCC(C2CCOC2)C1 (stereo not drawn) [1-H06, 1-[3-(oxolan-3-yl)pyrrolidin-1-yl]prop-2-en-1-one], the “% of control remaining” value was 99.1648%.
In the case of CCCCNC(=O)C(C#N)=Cc1cccc(Cl)c1Cl [9-H11, N-butyl-2-cyano-3-(2,3-dichlorophenyl)prop-2-enamide], the “% of control remaining” value is reported as 71.0112%.
In the case of Cc1ccc(NC(=O)NC(=O)C(C)Cl)c(C)c1 (stereo not drawn) [6-J04, 3-(2-chloropropanoyl)-1-(2,4-dimethylphenyl)urea], the “% of control remaining” value is reported as 101.073%.
In the case of C=CC(=O)NCc1ccc(F)c(F)c1 [1-C10, N-[(3,4-difluorophenyl)methyl]prop-2-enamide], the “% of control remaining” value is reported as 86.5055%.
In the case of C=CC(=O)N(C)CC(=O)N1CCN(C(=O)c2cccc(O)c2)CC1 [2-J22, N-{2-[4-(3-hydroxybenzoyl)piperazin-1-yl]-2-oxoethyl}-N-methylprop-2-enamide], the “% of control remaining” value is reported as 131.941%.
For C=CC(=O)NC1CCCCC12CCCC2 (stereo not drawn) [1-F16, N-{spiro[4.5]decan-6-yl}prop-2-enamide], the “% of control remaining” value was 107.604%.
In the case of COc1cccc(CN(C(=O)CCl)C23CC4CC(CC(C4)C2)C3)c1 [5-E05, N-(adamantan-1-yl)-2-chloro-N-[(3-methoxyphenyl)methyl]acetamide], the “% of control remaining” value is reported as 131.148%.
For C=CC(=O)N(Cc1c2c(nn1C)CCOC2)c1cc(C)cc(C)c1 [2-A07, N-(3,5-dimethylphenyl)-N-({2-methyl-2H,4H,6H,7H-pyrano[4,3-c]pyrazol-3-yl}methyl)prop-2-enamide], the “% of control remaining” value was 126.719%.
With CC(Cl)C(=O)N(CCc1ccc(F)cc1F)C(C)C (stereo not drawn) [6-D18, 2-chloro-N-[2-(2,4-difluorophenyl)ethyl]-N-(propan-2-yl)propanamide] the “% of control remaining” value was 93.9024%.
In the case of Cc1cc(C2CCCN2C(=O)C(C)Cl)no1 (stereo not drawn) [7-D19, 2-chloro-1-[2-(5-methyl-1,2-oxazol-3-yl)pyrrolidin-1-yl]propan-1-one], the “% of control remaining” value is reported as 100.785%.
CC(Cl)C(=O)N1CC(S(=O)(=O)c2ccccc2F)C1 (stereo not drawn) [7-M15, 2-chloro-1-[3-(2-fluorobenzenesulfonyl)azetidin-1-yl]propan-1-one] was tested, and the “% of control remaining” value was 99.843%.
For CC(Cl)C(=O)N1CCCN(C)c2cc(F)ccc21 (stereo not drawn) [6-N16, 2-chloro-1-(7-fluoro-5-methyl-2,3,4,5-tetrahydro-1H-1,5-benzodiazepin-1-yl)propan-1-one], the “% of control remaining” value was 103.122%.
Cc1c(CN(CC2CC=CCC2)C(=O)CCl)cnn1C (stereo not drawn) [5-C14, 2-chloro-N-[(cyclohex-3-en-1-yl)methyl]-N-[(1,5-dimethyl-1H-pyrazol-4-yl)methyl]acetamide] was tested, and the “% of control remaining” value was 89.6175%.
In the case of C=CC(=O)N(C)CC(=O)NCc1c(O)nnc(C)c1C [2-I20, N-({[(3-hydroxy-5,6-dimethylpyridazin-4-yl)methyl]carbamoyl}methyl)-N-methylprop-2-enamide], the “% of control remaining” value is reported as 69.9739%.
In the case of C=CC(=O)N1CCC(C(=O)NCc2ncccc2OC)CC1 [3-H05, N-[(3-methoxypyridin-2-yl)methyl]-1-(prop-2-enoyl)piperidine-4-carboxamide], the “% of control remaining” value is reported as 93.6874%.
For O=C(O)C1CCN(C(=O)CCl)CC1 [6-O11, 1-(2-chloroacetyl)piperidine-4-carboxylic acid], the “% of control remaining” value was 88.0976%.
With C=CC(=O)Nc1ccc2c(c1)OCCCO2 [1-G20, N-(3,4-dihydro-2H-1,5-benzodioxepin-7-yl)prop-2-enamide] the “% of control remaining” value was 96%.
In the case of COc1cc(NC(=O)CCl)c(Cl)cc1C(=O)O [4-M17, 5-chloro-4-(2-chloroacetamido)-2-methoxybenzoic acid], the “% of control remaining” value is reported as 121.201%.
For C=CC(=O)N(Cc1cn(C2CCC2)nn1)c1ccc(F)cc1 [1-G09, N-[(1-cyclobutyl-1H-1,2,3-triazol-4-yl)methyl]-N-(4-fluorophenyl)prop-2-enamide], the “% of control remaining” value was 106.198%.
For CCCn1c(C)cc(C=C(C#N)C(=O)N2CCCCC2)c1C [9-D11, 3-(2,5-dimethyl-1-propyl-1H-pyrrol-3-yl)-2-(piperidine-1-carbonyl)prop-2-enenitrile], the “% of control remaining” value was 95.8801%.
C=CC(=O)N1CC(c2cc(CO)on2)C1 [1-K20, 1-{3-[5-(hydroxymethyl)-1,2-oxazol-3-yl]azetidin-1-yl}prop-2-en-1-one] was tested, and the “% of control remaining” value was 116.396%.
For C=CC(=O)N1CCC(C(=O)N(C)C2CCCc3c2cnn3C)CC1 (stereo not drawn) [2-P12, N-methyl-N-(1-methyl-4,5,6,7-tetrahydro-1H-indazol-4-yl)-1-(prop-2-enoyl)piperidine-4-carboxamide], the “% of control remaining” value was 102.002%.
In the case of CC(Cl)C(=O)NCc1cc2sccc2s1 (stereo not drawn) [6-B07, 2-chloro-N-({thieno[3,2-b]thiophen-2-yl}methyl)propanamide], the “% of control remaining” value is reported as 80.2439%.
For CC(Cl)C(=O)c1ccc(NC(=O)C(C)(C)C)cc1 (stereo not drawn) [10-M06, N-[4-(2-chloropropanoyl)phenyl]-2,2-dimethylpropanamide], the “% of control remaining” value was 135.625%.
For N#CC(=Cc1cccc(F)c1)C(=O)Nc1ccc(SC(F)F)cc1 [9-N17, 2-cyano-N-{4-[(difluoromethyl)sulfanyl]phenyl}-3-(3-fluorophenyl)prop-2-enamide], the “% of control remaining” value was 97.9775%.
C=CC(=O)N(C)CC(=O)Nc1ccc(C)c(S(=O)(=O)N(C)C)c1 [3-G04, N-({[3-(dimethylsulfamoyl)-4-methylphenyl]carbamoyl}methyl)-N-methylprop-2-enamide] was tested, and the “% of control remaining” value was 78.0148%.
In the case of COc1ccc(C2CCCN2C(=O)CCl)cc1OC (stereo not drawn) [6-M03, 2-chloro-1-[2-(3,4-dimethoxyphenyl)pyrrolidin-1-yl]ethan-1-one], the “% of control remaining” value is reported as 92.5366%.
With CC(Cl)C(=O)c1ccc(NS(C)(=O)=O)cc1 (stereo not drawn) [10-A08, N-[4-(2-chloropropanoyl)phenyl]methanesulfonamide] the “% of control remaining” value was 128.125%.
In the case of CCc1nocc1CN(C)C(=O)CCl [5-B11, 2-chloro-N-[(3-ethyl-1,2-oxazol-4-yl)methyl]-N-methylacetamide], the “% of control remaining” value is reported as 105.647%.
In the case of C=CC(=O)NCC1CSCCS1 (stereo not drawn) [1-K07, N-[(1,4-dithian-2-yl)methyl]prop-2-enamide], the “% of control remaining” value is reported as 91.7802%.
For C=CC(=O)N(C)Cc1cccc(Cl)c1 [2-G09, N-[(3-chlorophenyl)methyl]-N-methylprop-2-enamide], the “% of control remaining” value was 96.4317%.
For COc1cc(C=C(C#N)C(=O)NC(C)C)cc(OC)c1 [8-F15, 2-cyano-3-(3,5-dimethoxyphenyl)-N-(propan-2-yl)prop-2-enamide], the “% of control remaining” value was 134.108%.
In the case of N#CC(=Cc1ccccc1[N+](=O)[O-])C(=O)Nc1ccc2c(c1)OCCO2 [9-O20, 2-cyano-N-(2,3-dihydro-1,4-benzodioxin-6-yl)-3-(2-nitrophenyl)prop-2-enamide], the “% of control remaining” value is reported as 108.764%.
In the case of O=C(CCl)NC1CCN(C(=O)COc2ccccc2)C1 (stereo not drawn) [7-L03, 2-chloro-N-[1-(2-phenoxyacetyl)pyrrolidin-3-yl]acetamide], the “% of control remaining” value is reported as 105.495%.
With CC(Cl)C(=O)NCC(c1ccccc1)c1nnc[nH]1 (stereo not drawn) [7-G15, 2-chloro-N-[2-phenyl-2-(4H-1,2,4-triazol-3-yl)ethyl]propanamide] the “% of control remaining” value was 97.0173%.
